# PubChem BioAssay AID1454 (National Center for Advancing Translational Sciences (NCATS), 2008)
# Several values for one entry are separate records, joined by “and”; a condition that tells them apart may be missing. Equal values may be shown once. In all, about 130,000 compounds went through this assay and about 550 (0.42%) were called active. The shares of active, inactive and inconclusive entries below differ from those in the screen. Calls come from the whole dose curve; as a rule, active = well fitted inhibition curve with a large enough effect; inconclusive = small, poorly fitted or top-dose-only effect, or effect the other way; inactive = flat fitted curve, though single readings scatter. Potencies of inconclusive entries are doubtful fits and often do not repeat.
# Test: qHTS Assay for Inhibitors of the ERK Signaling Pathway using a Homogeneous Screening Assay; Stimulation with EGF; note: nearly all actives have a fitted effect of over 55% in size;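 for activity change, negative = inhibition: plate controls were stimulated vehicle wells for no effect and unstimulated vehicle basal for full effect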
# Conditions: HEK293-V1b, EGF-stimulated phospho-ERK AlphaScreen; activity change, negative = inhibition: at the top concentration
# Procedure, shortened: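 Stably V1b-transfected HEK293 cells; 30 min compound, then EGF 25 nM final for 5 min at 37C; 10 min lysis; phospho-ERK by AlphaScreen after 5 hr beads at room temperature.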
# Potency is the fitted concentration of half-maximal effect; tags give direction and shape of the fitted curve.
Structure (SMILES),Potency,"activity change, negative = inhibition"
Oc1c(N=NC(=S)Nc2ccccc2F)c2ccccc2n1Cc1ccc(F)cc1,"inconclusive: 22.4 µM [inhibitor, single point]",–
C[C@@H]1CC=C[C@H]2[C@H]1C(=O)N(Cc1ccccc1)[C@H]2c1ccc(F)c(-c2ccc(N(C)C)cc2)c1,"inconclusive: 17.8 µM [inhibitor, partial curve]",–
N#C/C(=C\c1ccc(-c2ccc([N+](=O)[O-])cc2Br)o1)C(=O)N1CCN(c2ccccc2)CC1,"inconclusive: 15.8 µM [inhibitor, partial curve]",–
COc1ccc(NC(=O)c2c[nH]n3c(=O)cc(C4CCN(C(=O)OC(C)(C)C)CC4)nc23)cc1Cl,"inconclusive: 1.78 µM [activator, partial curve]",–
CCCCS(=N)(=O)CC[C@H](N)C(=O)O (stereo partly specified),–,inactive: -2.58%
CCN(Cc1ccccc1)c1ccc(N=Nc2nn(C)c(C)c2[N+](=O)[O-])cc1,active: 20 µM,–
CCOC(=O)c1cnc2c(C)cccc2c1Nc1ccc(N2CCOCC2)cc1,"inconclusive: 17.8 µM [inhibitor, partial curve, poor fit]",–
O=[N+]([O-])c1cc(-n2cccc2)ccc1N1CCOCC1,active: 28.2 µM,–
CC1C/C(=C\c2cccnc2)C(=O)/C(=C/c2cccnc2)C1 (stereo unspecified),"inconclusive: 31.6 µM [inhibitor, single point]",–
COc1cccc(Nc2nnc(SCC(=O)Nc3sccc3C(N)=O)s2)c1,"inconclusive: 39.8 µM [inhibitor, single point]",–
COC(=O)C(C(C)=O)C(NC(=O)OC(C)(C)C)c1ccccc1 (stereo unspecified),–,inactive: -0.695%
O=c1c2cc(NC(=S)NC3CCCCC3)ccc2nc2n1CCCCC2,"inconclusive: 28.2 µM [inhibitor, single point]",–
Cc1c(N=C2N=C(NC(=O)c3ccc(F)cc3)c3ccccc32)c(=O)n(-c2ccccc2)n1C,"inconclusive: 31.6 µM [inhibitor, partial curve]",–
O=C(/C=C/c1cn(CC(O)CN2CCCCC2)c2ccccc12)c1cccs1 (stereo unspecified),"inconclusive: 39.8 µM [inhibitor, partial curve]",–
CN(C)c1ccc(N2C(=O)CSC2=S)cc1,"inconclusive: 28.2 µM [inhibitor, partial curve]",–
CCCOC1CCCN(C(=O)CCc2nnc(CCCCc3ccccc3)o2)C1 (stereo unspecified),"inconclusive: 14.1 µM [inhibitor, partial curve]",–
CSc1ccc2c(c1)C(N1CCN(C)CC1)Cc1ccccc1S2 (stereo unspecified),"inconclusive: 39.8 µM [inhibitor, single point]",–
CCCCN1C(=O)/C(=C/C=C2/CC(C)(C)CN2C)SC1=S,"inconclusive: 20 µM [inhibitor, partial curve]",–
CCOC(=O)Cc1csc(NC(=O)c2ccc(C)cc2)n1,–,inactive: 4.93%
CC(=O)C1=NN(c2ccccc2)C(c2ccc3c(c2)OCO3)N1c1ccc(N2CCOCC2)cc1 (stereo unspecified),–,inactive: -3.47%
COc1ccc(/C=C2/C(=O)OCc3cc(OC)c(OC)cc32)c(OC)c1,"inconclusive: 22.4 µM [inhibitor, single point]",–

Structure (SMILES),Potency,"activity change, negative = inhibition"
Cc1cccc(N=Nc2c(O)[nH]c3ccc(F)cc23)c1,"inconclusive: 12.6 µM [inhibitor, partial curve]",–
Cc1cccc(C(=O)NC(CC(=O)O)c2ccc(OC3CCCC3)cc2)c1[N+](=O)[O-] (stereo unspecified),"inconclusive: 10 µM [activator, partial curve]",–
COc1ccc(N=c2scc(-c3ccc(OC)cc3)n2CCO)cc1,"inconclusive: 25.1 µM [inhibitor, single point]",–
Cc1ccc(S(=O)(=O)N[C@H](C(=O)OCC(=O)NC(=O)Nc2ccc3c(c2)OCCO3)C(C)C)cc1,"inconclusive: 28.2 µM [inhibitor, single point]",–
Cc1cccn2c(=O)c(C=O)c(N3CCSCC3)nc12,"inconclusive: 39.8 µM [inhibitor, partial curve, poor fit]",–
CCc1cc(C(=O)Nc2ccc(C)cc2Br)cs1,"inconclusive: 28.2 µM [activator, single point]",–
CCCCC/C=C\C\C=C/C=C/C=C/[C@@H](O)[C@@H](O)CCCC(=O)O,–,inactive: -8.06%
COc1ccc(CCN(C)C(=S)NC(=O)c2ccc(F)cc2Cl)cc1OC,"inconclusive: 0.891 µM [inhibitor, partial curve, poor fit]",–
Nc1c(Cl)ncnc1N/N=C/c1ccc2ccccc2n1,"inconclusive: 20 µM [inhibitor, single point]",–
CC1(C)[C@@H]2CC[C@@]1(C)C(=O)C2,–,inactive: -4.43%
N/C(=N\OC(=O)COc1ccc2ccccc2c1Br)c1ccccn1,"inconclusive: 35.5 µM [inhibitor, single point]",–
CC(=O)c1c(COC(=O)c2ccc(Cl)cc2)nc2ccccc2[n+]1[O-],"inconclusive: 14.1 µM [inhibitor, partial curve]",–
Cc1cc2ccccn2c1C(=O)c1cc([N+](=O)[O-])cc([N+](=O)[O-])c1,active: 28.2 µM,–
O=C(/C=C/c1ccc2ccccc2n1)N1CCN(c2ccccc2)CC1,"inconclusive: 28.2 µM [inhibitor, partial curve]",–
C=Cc1c(C)c2cc3[nH]c(cc4nc(cc5nc(cc1[nH]2)C(C)=C5CCC(=O)O)C(CCC(=O)O)=C4C)c(C)c3C=C,"inconclusive: 14.1 µM [activator, partial curve] and inconclusive: 25.1 µM [activator, partial curve]",–
NC(=O)c1nn(CC(=O)Nc2ccc3c(c2)OCO3)cc1[N+](=O)[O-],–,inactive: -3.93%
Cc1ccc(S(=O)(=O)NCCc2ccncc2)cc1C,"inconclusive: 6.31 µM [activator, partial curve]",–
Cn1c(-c2ccc(F)cc2)cnc1SCC(=O)N1CCCc2ccccc21,"inconclusive: 35.5 µM [inhibitor, single point]",–
Cc1ccc(/C=N/N2CCN(Cc3ccc(C)cc3)CC2)cc1,"inconclusive: 22.4 µM [inhibitor, partial curve]",–
COc1ccc2c(c1)OC/C(=C\c1ccc(OC)c(O)c1)C2=O,"inconclusive: 25.1 µM [inhibitor, single point]",–
